Assay results reported in PubChem BioAssay AID504332 (National Center for Advancing Translational Sciences (NCATS), 2011).
Screen size: about 350,000 compounds; about 31,000 (8.9%) were called active. The shares of active, inactive and inconclusive entries below differ from those in the screen. Calls come from the whole dose curve; as a rule, active = well fitted inhibition curve with a large enough effect; inconclusive = small, poorly fitted or top-dose-only effect; inactive = no such curve, though single readings can be large or run the other way. Where the call is inconclusive, the potency comes from a doubtful curve fit.

biological target: Histone-lysine N-methyltransferase EHMT2 (Homo sapiens) (UniProt Q96KQ7); assay: qHTS Assay for Inhibitors of Histone Lysine Methyltransferase G9a; details: G9a H3K9 monomethylation, AlphaScreen, 2 h; activity, negative = inhibition: at 59 µM (top of the series) unless noted; note: nearly all actives have a fitted effect of over 75% in size
Chain of UniProt Q96KQ7 (Q96KQ7 whole entry, looked up): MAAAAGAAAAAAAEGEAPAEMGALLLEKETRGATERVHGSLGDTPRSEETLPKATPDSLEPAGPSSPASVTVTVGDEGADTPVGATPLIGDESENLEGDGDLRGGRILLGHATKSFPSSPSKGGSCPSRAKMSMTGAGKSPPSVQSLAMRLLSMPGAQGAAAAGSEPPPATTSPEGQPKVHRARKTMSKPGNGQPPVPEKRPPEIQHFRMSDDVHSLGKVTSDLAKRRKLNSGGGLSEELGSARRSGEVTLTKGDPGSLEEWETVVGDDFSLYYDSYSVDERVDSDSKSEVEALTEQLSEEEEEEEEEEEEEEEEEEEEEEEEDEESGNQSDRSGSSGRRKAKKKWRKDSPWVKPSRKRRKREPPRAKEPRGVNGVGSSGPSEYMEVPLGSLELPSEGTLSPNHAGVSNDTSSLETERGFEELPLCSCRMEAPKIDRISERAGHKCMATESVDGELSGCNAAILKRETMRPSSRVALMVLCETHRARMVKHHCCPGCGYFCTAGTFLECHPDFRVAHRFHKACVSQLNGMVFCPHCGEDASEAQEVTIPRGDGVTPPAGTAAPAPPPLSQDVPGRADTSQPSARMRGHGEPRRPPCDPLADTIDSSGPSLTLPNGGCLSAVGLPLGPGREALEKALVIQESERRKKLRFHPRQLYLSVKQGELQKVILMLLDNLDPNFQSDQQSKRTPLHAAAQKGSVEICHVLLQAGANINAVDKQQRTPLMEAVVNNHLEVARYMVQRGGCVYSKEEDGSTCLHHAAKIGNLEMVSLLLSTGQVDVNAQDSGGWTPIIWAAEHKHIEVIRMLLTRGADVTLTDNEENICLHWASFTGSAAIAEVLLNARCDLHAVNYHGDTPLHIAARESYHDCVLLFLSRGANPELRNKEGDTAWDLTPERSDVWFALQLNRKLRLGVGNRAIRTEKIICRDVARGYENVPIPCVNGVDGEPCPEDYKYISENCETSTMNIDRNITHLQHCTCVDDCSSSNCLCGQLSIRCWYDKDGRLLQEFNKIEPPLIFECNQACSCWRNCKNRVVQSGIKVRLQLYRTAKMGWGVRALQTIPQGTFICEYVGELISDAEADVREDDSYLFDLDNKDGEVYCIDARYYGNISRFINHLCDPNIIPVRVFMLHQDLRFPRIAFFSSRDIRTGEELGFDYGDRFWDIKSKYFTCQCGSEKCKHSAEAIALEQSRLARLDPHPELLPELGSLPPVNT
Summary of the method: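 G9a (20 nM) was preincubated 15 min with compound, then reacted 2 h at room temperature with 500 nM biotin-H3K9 peptide and 20 µM SAM. Monomethyl-H3K9 detected by AlphaScreen using anti-H3K9me1 antibody.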
% is set by controls: 0 for no effect and ±100 for the full control effect; potency is the fitted concentration of half-maximal effect; tags give direction and shape of the fitted curve.

SMILES	Potency	activity, negative = inhibition
Cc1cc(=O)[nH]c(N/N=C/c2ccc(Cl)cc2Cl)n1	inconclusive: 79.4 µM [inhibitor, single point]	
O=C(NCc1cccnc1)c1ccc(S(=O)(=O)N2CCCCC2)cc1	inconclusive: 2.82 µM [inhibitor, partial curve, poor fit]	
CN(C)CCNC(=O)NC1CCCCC1	inactive	
CCc1ccc2c(c1)C(c1ccc([N+](=O)[O-])cc1)=NNC(c1ccccc1)=N2	inactive	
CN1CC=C2C(C#N)=C(N)C(C#N)(C#N)C(Cc3ccccc3)C2C1 (stereo not given)		inactive: -29.3% [at 12.7 µM]
COc1ccccc1Nc1nc(-c2sc(NC(=O)CC(C)C)nc2C)cs1	inconclusive: 39.8 µM [inhibitor, single point]	
Cc1ccc(S(=O)(=O)Cc2ccc(C(=O)N3CCN(c4cc(C)ccc4C)CC3)o2)cc1	inactive	
CCOc1ccc(NC(=O)CSc2oc(-c3cccs3)nc2S(=O)(=O)c2ccc(Cl)cc2)cc1	inconclusive: 17.8 µM [inhibitor, partial curve, poor fit]	
NCCCCCCNS(=O)(=O)c1cccc2c(Cl)cccc12		inactive: 46.1% [at 12.7 µM]
O=C(Cn1c(=O)n(-c2ccccc2)c(=O)c2ccc(C(=O)NCc3ccc4c(c3)OCO4)cc21)Nc1ccc(Br)cc1F	inactive	
CCCCC(=O)NC(=S)Nc1cccc(NC(=O)c2ccccc2)c1	active: 50.1 µM	
Cn1c(=O)c2c(SCC(=O)NCC3CCCO3)nc(-c3ccccc3F)nc2n(C)c1=O (stereo not given)	inactive	
COc1cc2c(ccc3cc(OC)c(OC)c(O)c32)cc1O	inconclusive: 1.58 µM [inhibitor, full curve, poor fit]	
CCN(CCCNC(=O)c1cc2cc3cc(OC)ccc3nc2s1)c1ccccc1	inconclusive: 5.62 µM [inhibitor, partial curve, poor fit]	
COc1ccc(N2CCN(C(CNC(=O)C(=O)NCC(OC)OC)c3ccco3)CC2)cc1 (stereo not given)	inactive	
CCOC(=O)N1CCC(N2CCN(c3cc(C)ccc3C)CC2)CC1	inconclusive: 89.1 µM [inhibitor, single point]	
COc1cc(/C=C/c2nnc3c4ccccc4ncn23)cc(OC)c1OC	inconclusive: 50.1 µM [inhibitor, partial curve, poor fit]	
CN1CCN(C(=S)c2cn(Cc3ccccc3F)c3ccccc23)CC1	active: 39.8 µM	
O=C(O)Cc1csc(-c2ccc(F)cc2)n1	inactive	
Cc1c(Cl)ccc2c1NC(=O)[C@]21N[C@@H](CCC(N)=O)[C@H]2C(=O)N(c3ccc(F)cc3)C(=O)[C@H]21	active: 14.1 µM	
COc1cccc(C2C(C#N)=C(N)Oc3c2oc(CO)cc3=O)c1OC (stereo not given)	inconclusive: 39.8 µM [inhibitor, single point]	
N#Cc1nc(Cc2cccc3ccccc23)oc1NCCCN1CCOCC1	active: 50.1 µM	
CCCn1cnc2cc(NCc3cccc(OC)c3O)ccc21	inconclusive: 39.8 µM [inhibitor, partial curve]	
Cc1c(Cl)cccc1NC(=S)N(Cc1ccco1)C(C)c1ccccn1 (stereo not given)	inconclusive: 89.1 µM [inhibitor, single point]	

SMILES	Potency	activity, negative = inhibition
CNC(=S)N1CCc2cc(OC)c(OC)cc2C1COc1ccc(OC)cc1 (stereo not given)	inconclusive: 79.4 µM [inhibitor, partial curve, poor fit]	
COc1cc(/C=C/CN2CCN(Cc3ccc(C)o3)C(CCO)C2)ccc1O (stereo not given)	active: 79.4 µM	
COc1ccc(C(=O)CSc2nnc(-c3ccccn3)n2Cc2ccco2)cc1	inconclusive: 44.7 µM [inhibitor, partial curve]	
Cn1c(SCc2ccccc2)nnc1-c1ccncc1	inconclusive: 70.8 µM [inhibitor, single point]	
CN(C)CCOc1ccc2ccccc2c1	active: 11.2 µM	
O=C(O)Cn1c2c(c3ccccc31)CSc1ccc(Cl)cc1-2		inconclusive: -74.4% [inhibitor] [at 2.33 µM]
O=C(NNS(=O)(=O)c1ccccc1)c1ccc(S(=O)(=O)N2CCCCC2)cc1	inconclusive: 39.8 µM [inhibitor, single point]	
COc1ccccc1NS(=O)(=O)c1cccc(C(=O)NCc2ccco2)c1	inconclusive: 1.58 µM [inhibitor, full curve, poor fit]	
CCOc1ccc(NC(=S)NCCCN2CCN(C3CCCCC3)CC2)cc1	inconclusive: 17.8 µM [inhibitor, partial curve, poor fit]	
COc1ccc(N2CCN(C(=O)c3ccc(Br)cc3)CC2)c([N+](=O)[O-])c1	active: 44.7 µM	
Cn1cc(C(=O)c2ccccc2)cc1-c1nc2ccccc2n1C	active: 50.1 µM	
CN([C@@H](C(=O)OC(C)(C)C)c1ccccc1)S(=O)(=O)c1cccc(S(=O)(=O)N(C)[C@@H](C(=O)OC(C)(C)C)c2ccccc2)c1	inconclusive: 89.1 µM [inhibitor, single point]	
O=C(NC(=S)Nc1ccccc1N1CCOCC1)c1cccs1	inconclusive: 17.8 µM [inhibitor, single point]	
CC(=O)c1c(C)[nH]c(=S)c(C#N)c1-c1ccc(F)cc1	active: 1.41 µM	
COc1ccc(C(c2c(O)nc(SC)n(C)c2=O)c2c(O)nc(SC)n(C)c2=O)cc1O	active: 15.8 µM	
CCn1c(=O)n(CC)c2cc(N3CCCC3)c(NC(=O)c3cccc(Cl)c3)cc21	active: 39.8 µM	
COc1ccc(/C=C/C(=O)Nc2ccc(S(=O)(=O)N3CCOCC3)cc2)c(OC)c1	inconclusive: 6.31 µM [inhibitor, partial curve, poor fit]	
CC1CC2(CC(C)(C(=O)CSc3n[nH]c(-c4ccccc4Cl)n3)OC2=O)C(=O)O1 (stereo not given)	inconclusive: 3.16 µM [inhibitor, partial curve, poor fit]	
Cc1ccc(NC(=O)CC2=NC(=O)C(CC(=O)Nc3ccccc3F)S2)cc1 (stereo not given)	inconclusive: 56.2 µM [inhibitor, partial curve]	
CC(=O)NC(CCS(C)(=O)=O)C(=O)Nc1cccc2ccccc12 (stereo not given)	inconclusive: 35.5 µM [inhibitor, single point]	
COc1ccccc1N1CCN(C(=O)Cn2c(=O)n3nc(-c4cccc(C)c4)nc3c3ccccc32)CC1	inactive	
COc1ccccc1C(=O)OCC(=O)NC12CC3CC(CC(C3)C1)C2	inconclusive: 70.8 µM [inhibitor, single point]	
COc1ccc(C(=O)Nc2ccc(NC(=O)c3ccccc3)cc2)cc1S(=O)(=O)N1CCOCC1	inconclusive: 79.4 µM [inhibitor, single point]	
Cc1cccc(NC(=O)Nc2ccccc2[N+](=O)[O-])n1	inactive	

SMILES	Potency	activity, negative = inhibition
N#Cc1ccccc1OCC(=O)N(Cc1nnc(-c2ccccc2Cl)o1)C1CC1	inconclusive: 50.1 µM [inhibitor, partial curve]	
O=S(=O)(NC1CCCc2ccccc21)c1cnc[nH]1 (stereo not given)	inconclusive: 2.24 µM [inhibitor, full curve, poor fit]	
Cc1ccc(C(=O)N2NC(c3ccc(F)cc3)C3C(=O)N(c4ccc(C)c(C)c4)C(=O)C32)cc1 (stereo not given)	active: 56.2 µM	
CC(=O)c1ccc(S(=O)(=O)Nc2cccc(-n3cnnn3)c2)cc1	active: 39.8 µM	
Cc1c(C#N)c(O)[nH]c(=O)c1N=Nc1ccc(Br)cc1C(=O)O	active: 44.7 µM	
O=C(Nc1ccc(N2CCOCC2)c(Cl)c1)c1ccc(Br)o1		inactive: -50.3% [at 12.7 µM]
CCOc1cc(C(=O)NC(=S)Nc2cccnc2)cc(OCC)c1OCC	inconclusive: 39.8 µM [inhibitor, single point]	
O=C(O)c1cc(-c2ccco2)nc2ccccc12	active: 28.2 µM	
Cc1c(C(=O)NC2CCCC2)oc2ccccc12	inactive	
O=C(COC(=O)c1c[nH]c2ccccc12)Nc1ccc([N+](=O)[O-])cc1		inactive: 12.3% [at 12.7 µM]
O=C(c1ccccc1)N1CCN(c2ccc(N3CCOCC3)nn2)CC1	inactive	
CCN(C(=O)Cn1nc(Cc2ccncc2)c2ccccc2c1=O)c1cccc(C(F)(F)F)c1	inconclusive: 39.8 µM [inhibitor, partial curve, poor fit]	
COc1cccc(C2=NOC(C(=O)Nc3ccc4c(c3)OCO4)C2)c1 (stereo not given)	inconclusive: 79.4 µM [inhibitor, single point]	
Cc1ccccc1C(=O)N1CCN(c2ccc(NC(=O)Cc3ccccc3)cc2)CC1	inconclusive: 15.8 µM [inhibitor, partial curve, poor fit]	
N#Cc1ccc(OCC(=O)Nc2cc(S(=O)(=O)N3CCOCC3)ccc2N2CCOCC2)cc1	active: 70.8 µM	
O=C(CC1SC(=Nc2ccccc2F)N(CCN2CCOCC2)C1=O)Nc1ccc(F)cc1F (stereo not given)	inconclusive: 10 µM [inhibitor, partial curve, poor fit]	
c1ccc(Nc2c(-c3ccco3)nc3ccccn23)cc1	inconclusive: 7.94 µM [inhibitor, partial curve]	
COc1ccc(NC(=O)CCN2CCN(CCO)CC2)cc1	inactive	
Cc1cc(Br)ccc1NC(=O)CN(C)C(=O)c1ccc2ccccc2n1	inconclusive: 31.6 µM [inhibitor, single point]	
Cc1cc(OCC(=O)N2CCCC2)ccc1Cl	inactive	
O=C(C1CCC(CNc2nc(=S)[nH]c3ccccc23)CC1)N1CCN(c2ccc(F)cc2)CC1 (stereo not given)	inconclusive: 10 µM [inhibitor, full curve]	
CC1CCN(CCCCOc2ccc(C(=O)c3ccccc3)cc2)CC1	active: 35.5 µM	
